Source: the supplement of paper PMC8728848
Some of the results follow.

Columns and labels:
Assay in all cases: glycan array binding signal (z-score within array); higher = stronger binding
Details in all cases: glycan notation: IUPAC condensed, linker removed
[1] = biological target: Neu5Ac(a2-6)GlcNAc(b1-4)GlcNAc(b1-4)GlcNAc
Outline: (§1)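 The binding signal is a Z-score computed within each array. Data were drawn from 3228 arrays in the Consortium for Functional Glycomics database, restricted to those with a known protein sequence. Scores were averaged over arrays of the same protein sequence at different concentrations or buffers, and over linkers, and negative values can be taken as non-binding.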

Neu5Ac(a2-8)Neu5Ac = biological target: Neu5Ac(a2-8)Neu5Ac
Outline: as §1

[2] = biological target: Neu5Ac(a2-8)Neu5Ac(a2-3)Gal(b1-3)GalNAc(b1-4)[Neu5Ac(a2-3)]Gal(b1-4)Glc
Outline: as §1

[3] = biological target: Neu5Ac(a2-8)Neu5Ac(a2-3)Gal(b1-3)GalNAc(b1-4)[Neu5Ac(a2-8)Neu5Ac(a2-3)]Gal(b1-4)Glc
Outline: as §1

[4] = biological target: Neu5Ac(a2-8)Neu5Ac(a2-3)Gal(b1-4)Glc
Outline: as §1

[5] = biological target: Neu5Ac(a2-8)Neu5Ac(a2-3)Gal(b1-4)GlcNAc
Outline: as §1

[6] = biological target: Neu5Ac(a2-8)Neu5Ac(a2-3)[Gal(b1-3)GalNAc(b1-4)]Gal(b1-4)Glc
Outline: as §1

[7] = biological target: Neu5Ac(a2-8)Neu5Ac(a2-3)[GalNAc(b1-4)]Gal(b1-4)Glc
Outline: as §1

[8] = biological target: Neu5Ac(a2-8)Neu5Ac(a2-8)Neu5Ac
Outline: as §1

[9] = biological target: Neu5Ac(a2-8)Neu5Ac(a2-8)Neu5Ac(a2-3)Gal(b1-4)Glc
Outline: as §1

[10] = biological target: Neu5Ac(a2-8)Neu5Ac(a2-8)Neu5Ac(a2-3)[Gal(b1-3)GalNAc(b1-4)]Gal(b1-4)Glc
Outline: as §1

[11] = biological target: Neu5Ac(a2-8)Neu5Ac(a2-8)Neu5Ac(a2-3)[GalNAc(b1-4)]Gal(b1-4)Glc
Outline: as §1

[12] = biological target: Neu5Ac(a2-8)Neu5Ac(a2-8)Neu5Ac(a2-8)Neu5Ac(a2-3)[GalNAc(b1-4)]Gal(b1-4)Glc
Outline: as §1

[13] = biological target: Neu5Ac(a2-8)Neu5Gc(a2-3)Gal(b1-4)GlcNAc
Outline: as §1

[14] = biological target: Neu5Ac(b2-6)Gal(b1-4)GlcNAc
Outline: as §1

Neu5Ac(b2-6)GalNAc = biological target: Neu5Ac(b2-6)GalNAc
Outline: as §1

[15] = biological target: Neu5Ac9Ac(a2-3)Gal(b1-3)GlcNAc
Outline: as §1

[16] = biological target: Neu5Ac9Ac(a2-3)Gal(b1-4)GlcNAc
Outline: as §1

[17] = biological target: Neu5Ac9Ac(a2-6)Gal(b1-4)GlcNAc
Outline: as §1

[18] = biological target: Neu5Gc(a2-3)Gal(b1-3)GlcNAc
Outline: as §1

[19] = biological target: Neu5Gc(a2-3)Gal(b1-3)[Fuc(a1-4)]GlcNAc
Outline: as §1

Neu5Gc(a2-3)Gal(b1-4)Glc = biological target: Neu5Gc(a2-3)Gal(b1-4)Glc
Outline: as §1

[20] = biological target: Neu5Gc(a2-3)Gal(b1-4)GlcNAc
Outline: as §1

[21] = biological target: Neu5Gc(a2-3)Gal(b1-4)GlcNAc(b1-3)Gal(b1-4)GlcNAc(b1-2)Man(a1-3)[Neu5Gc(a2-3)Gal(b1-4)GlcNAc(b1-3)Gal(b1-4)GlcNAc(b1-2)Man(a1-6)]Man(b1-4)GlcNAc(b1-4)GlcNAc
Outline: as §1

[22] = biological target: Neu5Gc(a2-3)Gal(b1-4)[Fuc(a1-3)]GlcNAc
Outline: as §1

[23] = biological target: Neu5Gc(a2-6)Gal(b1-4)GlcNAc
Outline: as §1

Neu5Gc(a2-6)GalNAc = biological target: Neu5Gc(a2-6)GalNAc
Outline: as §1

[24] = biological target: Neu5Gc(a2-8)Neu5Ac(a2-3)Gal(b1-4)GlcNAc
Outline: as §1

[25] = biological target: Neu5Gc(a2-8)Neu5Gc(a2-3)Gal(b1-4)GlcNAc
Outline: as §1

[26] = biological target: Neu5Gc(a2-8)Neu5Gc(a2-3)Gal(b1-4)GlcNAc(b1-3)Gal(b1-4)GlcNAc
Outline: as §1

[27] = biological target: Neu5Gc(a2-8)Neu5Gc(a2-6)Gal(b1-4)GlcNAc
Outline: as §1

[28] = biological target: Neu5Gc(b2-6)Gal(b1-4)GlcNAc
Outline: as §1

B1: HBHA-Rv (Mycobacterium tuberculosum), P0A5P6 (protein)
chain: MAENSNIDDIKAPLLAALGAADLALATVNELITNLRERAEETRTDTRSRVEESRARLTKLQEDLPEQLTELREKFTAEELRKAAEGYLEAATSRYNELVERGEAALERLRSQQSFEEVSARAEGYVDQAVELTQEALGTVASQTRAVGERAAKLVGIELPKKAAPAKKAAPAKKAAPAKKAAAKKAPAKKAAAKKVTQK
For B1, the “glycan array binding signal (z-score)” value [1] was -0.361, the “glycan array binding signal (z-score)” value (Neu5Ac(a2-8)Neu5Ac) was -0.261 and the “glycan array binding signal (z-score)” value [2] was -0.37. The “glycan array binding signal (z-score)” value [3] was 0.674, the “glycan array binding signal (z-score)” value [4] was 0.185 and the “glycan array binding signal (z-score)” value [5] was -0.326. The “glycan array binding signal (z-score)” value [6] was 1.55, the “glycan array binding signal (z-score)” value [7] was -0.209 and the “glycan array binding signal (z-score)” value [8] was -0.348. The “glycan array binding signal (z-score)” value [9] was -0.266, the “glycan array binding signal (z-score)” value [10] was -0.42 and the “glycan array binding signal (z-score)” value [11] was -0.152. The “glycan array binding signal (z-score)” value [12] was -0.135, the “glycan array binding signal (z-score)” value [13] was -0.388 and the “glycan array binding signal (z-score)” value [14] was -0.155. The “glycan array binding signal (z-score)” value (Neu5Ac(b2-6)GalNAc) was 0.298, the “glycan array binding signal (z-score)” value [15] was -0.212 and the “glycan array binding signal (z-score)” value [16] was -0.363. The “glycan array binding signal (z-score)” value [17] was 0.472, the “glycan array binding signal (z-score)” value [18] was -0.401 and the “glycan array binding signal (z-score)” value [19] was -0.33. For the same binder, the “glycan array binding signal (z-score)” value (Neu5Gc(a2-3)Gal(b1-4)Glc) was -0.346, the “glycan array binding signal (z-score)” value [20] was -0.348 and the “glycan array binding signal (z-score)” value [21] was -0.458. For the same binder, the “glycan array binding signal (z-score)” value [22] was -0.009, the “glycan array binding signal (z-score)” value [23] was 0 and the “glycan array binding signal (z-score)” value (Neu5Gc(a2-6)GalNAc) was -0.287. For the same binder, the “glycan array binding signal (z-score)” value [24] was -0.267, the “glycan array binding signal (z-score)” value [25] was -0.304 and the “glycan array binding signal (z-score)” value [26] was -0.429. The “glycan array binding signal (z-score)” value [27] was -0.171 and the “glycan array binding signal (z-score)” value [28] was -0.434.
